Among the data in PMC10726135 are binding signal (log2 normalized intensity) values, retold here.

Some of the results follow. At the low end of the ranking, values are background and their order means little. Measured with an extract: partners may take part in the binding.

The target in the test is T1, HNF4alpha8 (COS-7 nuclear extract) (UniProt P41235-5).
T1 sequence: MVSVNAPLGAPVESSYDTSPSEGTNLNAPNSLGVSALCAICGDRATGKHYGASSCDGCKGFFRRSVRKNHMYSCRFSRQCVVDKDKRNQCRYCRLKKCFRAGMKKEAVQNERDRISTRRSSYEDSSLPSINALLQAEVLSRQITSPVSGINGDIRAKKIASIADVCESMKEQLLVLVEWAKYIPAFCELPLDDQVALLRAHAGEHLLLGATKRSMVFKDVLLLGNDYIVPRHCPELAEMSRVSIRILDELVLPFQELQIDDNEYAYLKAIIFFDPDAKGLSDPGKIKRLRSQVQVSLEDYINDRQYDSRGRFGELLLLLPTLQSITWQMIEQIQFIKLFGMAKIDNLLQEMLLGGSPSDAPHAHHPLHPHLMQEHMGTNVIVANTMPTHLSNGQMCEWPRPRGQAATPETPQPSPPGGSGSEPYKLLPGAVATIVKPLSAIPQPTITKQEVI
As to the kind of experiment: protein-binding microarray. The settings on record: COS-7 nuclear extract on double-stranded Agilent 4x180k PBM; binding buffer, salt, pH and temperature not given; high values mean tight binding; double strand, one strand shown; sequences stand for … in …GCCTAGGGAGATTAGAGTATCGGTCGA
As for TTTTCAACATATACTTTGAACTTGTTTTTT, the binding signal (log2 normalized intensity) turned out to be 2.56.
For the sequence CCATGGTGTAATGGTTAGCACTCTGGACTC, the binding signal (log2 normalized intensity) was found to be 4.29.
With TGTGATGAAGGCAGAAAGAAAAGGGGACCT, the binding signal (log2 normalized intensity) was -1.29.
The same measure for AAAACAAAGGAAACCAAACATTGAAATCTT: -1.33; for TAAGCACACTAAGGCTAAAGATTACGAACT: -1.35.
Consider TTACGGTTAGGGTTAGGGTTAGGGTTAGGG, for which the binding signal (log2 normalized intensity) amounted to 0.777.
Regarding GGCCTGATGGTGAGTTCTGTCCTTTGTCCC, the binding signal (log2 normalized intensity) was 4.03.
On to AGCTCTCTTTGCTCTCCTCCTAATCACTGC, for which the binding signal (log2 normalized intensity) is -0.774.
As to CTTGTTATCTTGTCTCTTCTTGTACCTCTG, the binding signal (log2 normalized intensity) is 2.1.
Turning to TTCCAGAGCCTTCAAAGGAAAGCAGGTGTT, the binding signal (log2 normalized intensity) was -1.26.
For the sequence ACTGTCAGCAGGGGGATCCACTTCCTATCC, the binding signal (log2 normalized intensity) was -1.21.
With TCATGGAGGACTTTGGCCTTTTGTGAGATA the figure was 5.84; with CATCCCTCTCTTGCTGGGCCCCCAGATTGA, 2.39.
TCGAGATGGCTAATCAGTATTGAGGCCGGA: the binding signal (log2 normalized intensity) was -0.189.
The same measure for AGCCTTATTCTTTGATCTCTTATCACCCTG: 1.55; for TCGCTCCCCTCCTGTCAGTTTATTTACTGT: 1.51.
Consider CAGATGCCTGCACACGGTGTCCAGATTCCA, for which the binding signal (log2 normalized intensity) was -0.675.
On to AGGTGTGCTGAGGAAACTGACAGGAAACTG, for which the binding signal (log2 normalized intensity) is -1.34.
For TCCCCCAAACCAAAGAGAAATGGTGTGGAC, the binding signal (log2 normalized intensity) worked out at 2.12.
On to CACATTCCAGGAATATTCAGATATTCCTGG, for which the binding signal (log2 normalized intensity) is -1.27.
Consider AAAAACCTCTCTCCAGGTACAAGGATAAAT, for which the binding signal (log2 normalized intensity) was -0.486.
Regarding TGCAGGGAGGACAGACTCTGGGAGATAAAG, the binding signal (log2 normalized intensity) is -1.26.
With CTTATCAGGCTCATTCTAACCCAAATGCAA, the binding signal (log2 normalized intensity) was 1.98.
ACTTCGCTGGAGGTGTTAAAGTGCCATTGA: the binding signal (log2 normalized intensity) came out at 1.75.
Regarding GAGGAGACAAAGGCCGCGCCCGCCCGCGCC, the binding signal (log2 normalized intensity) was -1.08.
As for GATTTAATCCTCAAAAATGCTTTACAAGGT, the binding signal (log2 normalized intensity) was -1.21.
Take TGTTTAGGAGCCAATTATGCTGGCAGTAGG: the binding signal (log2 normalized intensity) is -0.999.
Regarding CTGTTACCACACCACAGCGGGGCCTCTGTG, the binding signal (log2 normalized intensity) was -1.28.
Regarding CTGCTTATCTCAACTGATTTACCTCTGACC, the binding signal (log2 normalized intensity) turned out to be 3.03.
Take TATGGTCTCTTCCAAAGCTGAAATGCCTCA: the binding signal (log2 normalized intensity) was -1.34.
For the sequence CTGCCCTTTGCCCTTTGGGAAGGGGCAAAA, the binding signal (log2 normalized intensity) is 5.21.
On to GTGGAATCCTGCTAGCAGCTCTCTCCCTTA, for which the binding signal (log2 normalized intensity) is -1.33.
In the case of CCCCCAGGAGCGAGTCAAGGGTCAATCCTC, the binding signal (log2 normalized intensity) amounted to 4.12.
Regarding CAACCCTGGCATAGCATGCCACGATGATTA, the binding signal (log2 normalized intensity) is -1.
With ACTTTCTGTGTCTTGGCAGTGATCAGTGTT, the binding signal (log2 normalized intensity) was 2.23.
The same measure for CAGTCCACATTTCTGAGCTGTGGAAACTCC: -0.41; for AAGGTTGGTGTGAACCAGGGTTAAGGTTTT: 1.54; for GGTTAGAGGATGACCTTCCCTGCAGAAAAG: 0.76.
Regarding AAGCCGTGGTGCTGTCCAAGGTGCTAGCTC, the binding signal (log2 normalized intensity) was -1.34.
The same measure for AAGTTGTAAAGATACTGCTTTTAAGAAAAA: -1.26; for TGCACCCCAGGTACGGAGGACAGCCACCCG: -1.15; for ACAGAGCAAGTAGAGCTGCTTACATTTTGC: -1.27.
Turning to AAACAGATAACTGGGGGCAAAGGTTCACTT, the binding signal (log2 normalized intensity) is 5.69.
As to CATTGTAGCCTCAAATTCCTGGGCTCAAAC, the binding signal (log2 normalized intensity) was -1.42.
With CTTACAGACTCCTGCATATCCTGACTGCTG, the binding signal (log2 normalized intensity) is -1.34.
With CACTGCTCTAGGCATTGGAGATATGATAGC, the binding signal (log2 normalized intensity) was -0.93.
Turning to GTACCTCCCGAAAGTGACCCTCTGCCCCCT, the binding signal (log2 normalized intensity) was determined as 6.93.
For the sequence CCAGTTAGACATAGGTTATAAACTTGTTTG, the binding signal (log2 normalized intensity) stood at 1.98.
With TCCAAAGGCCATCTGCTGGAGAATCCTCTC the figure was -1.28.
ATGACTACTTTAAAAGAAGATGCCTTTCAA: the binding signal (log2 normalized intensity) is -1.24.
As for AGGAGATAATGGGTGTAAGATACCTATGCC, the binding signal (log2 normalized intensity) was -0.143.
As to CACTACAAGCTTTGAAGGCAAGATAAAATA, the binding signal (log2 normalized intensity) was -1.32.
Regarding AAGCTTAGGAATTCCAAGAAGGCAGACTCA, the binding signal (log2 normalized intensity) is -1.26.
Turning to GAGTTGGGGACAAAGTTCAAGGTCCAGCCT, the binding signal (log2 normalized intensity) came to 6.37.
The same measure for GCAACCCCGTTTACTTTTGTACACACAGCA: -0.416; for ACCTTTGGGACATTCCCCAGGCTGCCCTGA: 1.75.
CCCAGTACAAAGTTCACTTTCTTGTTTACT: the binding signal (log2 normalized intensity) came out at 5.19.
As for TCTGACCCTTGACCAAGCAGCTGTTTGACC, the binding signal (log2 normalized intensity) turned out to be 3.77.
Take GGAGTTAACTAACAAAAGCAGAGGAGTGGC: the binding signal (log2 normalized intensity) is -1.35.
With TCCCTGACAGACCCCTCCTACGTACCCTAG the figure was 2.72; with TTTAGAGCACAGTAATGTGATTTAATTCTG, -1.21; with CTCCAGGACCTTGCCCTTTAGTTATCTCTT, 3.16.
The same measure for GGTTACAGGGTTCAACACGTGGTATTTTTC: 2.31; for CATCTCAGCTGTTATCTCTTTTGTGATAGA: 1.18.
With GGGCGGGGGTGACCAGATTAATTACCCACA the figure was -1.27; with GGCTCCGCTGCTGCAGAGCAAAGCTGATAA, -1.31.
Turning to TCCAGCCTGGGTGACAGAGTGAGACTCTAT, the binding signal (log2 normalized intensity) was -1.28.
Turning to TACTGACCTTTCTCCCTTTTCACAGGAGAG, the binding signal (log2 normalized intensity) amounted to 1.94.
With GGTAGTCGCCCTCCGTCGTGGCCTGGCGTG, the binding signal (log2 normalized intensity) is -1.16.
For the sequence CTCATTACTAATCCTCTTCTGTCCTCCTGT, the binding signal (log2 normalized intensity) is 2.05.
For the sequence AAATTCTGCGGCGGAAGGACACAGATTCAG, the binding signal (log2 normalized intensity) was -1.41.
Consider CCCCTTCCCACCTGCTGTCCAACCTCCTCC, for which the binding signal (log2 normalized intensity) was 3.83.
As to ATTCATTCAGCAAATATTGAATGTGTTACA, the binding signal (log2 normalized intensity) is 1.43.
As for GCCAGACTGGTTTTTCTTGGGTGTATGGGT, the binding signal (log2 normalized intensity) was determined as 1.98.
For the sequence AGACATTCCAAACATGTTTCGAACGGTTGC, the binding signal (log2 normalized intensity) stood at 0.375.
Take TTGCTATGTCCCTGATGACATAATTTACGG: the binding signal (log2 normalized intensity) is -0.0713.
With TTCCCGGCAGCCCGCGCGTGGCCCAGCATG the figure was -1.32; with CAGATCCCAAAGGCATGAATAGAATGCAAC, -1.24.
Turning to CCAGATAAGAGCTATCAATGACCCATGTTT, the binding signal (log2 normalized intensity) stood at 2.05.
With AAATACTTGTTATATTGGATAGTGCCTTTT the figure was 1.43; with CAGGAGCCCTAGGAATCCTGACCAGGGGCC, -1.36; with CAATTTCTTAGTAAACACTGCCACCGTGTG, -1.31.
For TCTACCATAGACCCTGTTGGTTTCTGGGAT, the binding signal (log2 normalized intensity) was 0.92.
With TTTGCAAGGTTTGTTCTTATCATGCTGTCT, the binding signal (log2 normalized intensity) was found to be 1.68.
For CACCCTTCCCTGAGTTTCCATTAACTGAAC, the binding signal (log2 normalized intensity) stood at 0.972.
The same measure for CTCCGTCGTGGCCTGGCGTGGATTCCGAGC: -1.31; for TTTGCCATAGATCCCACCATTCCCAGTTGT: 1.86.
In the case of CAGAATGACTTTCAGAAAGTCCTTGGAAAC, the binding signal (log2 normalized intensity) came out at 0.868.
With ATGCATTTCCCTAGATCACTGTGTATTTGT the figure was 1.6; with CTTTAACAAGGTGTGTTTGAGCAGGGGTGA, 1.4; with GCTGTCAACGGAGGTGGGAAAGACTTAGGA, -1.37.
On to TTAGATAACATCTTTTCTCAGTTAACTGGA, for which the binding signal (log2 normalized intensity) was 1.28.
For the sequence GAATGCTTTGAGCCAGAATCTGTCAGCTGC, the binding signal (log2 normalized intensity) was -1.36.
